Our source for the binding values is PMC4564177.

Chains of the proteins cited; added tags and fusions are not shown. Lines headed by an entry give the natural chain unless they say otherwise; changes in a name come on top. A line that says so, or that is headed by a name, gives the form on record, which may keep a tag or linker. Residues count along the entry.
myc-GFP-CRHR1 (P35347, residues 24-415): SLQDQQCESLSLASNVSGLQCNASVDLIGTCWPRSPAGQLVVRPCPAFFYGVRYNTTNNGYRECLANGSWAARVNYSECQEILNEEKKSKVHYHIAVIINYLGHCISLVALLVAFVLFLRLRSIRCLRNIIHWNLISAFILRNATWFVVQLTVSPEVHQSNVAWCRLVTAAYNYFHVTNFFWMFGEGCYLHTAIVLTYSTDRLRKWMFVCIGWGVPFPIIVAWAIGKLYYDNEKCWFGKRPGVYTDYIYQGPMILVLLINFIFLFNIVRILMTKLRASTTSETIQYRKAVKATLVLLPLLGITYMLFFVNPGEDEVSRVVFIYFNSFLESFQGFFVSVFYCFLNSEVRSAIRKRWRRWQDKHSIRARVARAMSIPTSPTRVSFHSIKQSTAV
myc-GFP-CRHR1-STAVA (P35347, form named): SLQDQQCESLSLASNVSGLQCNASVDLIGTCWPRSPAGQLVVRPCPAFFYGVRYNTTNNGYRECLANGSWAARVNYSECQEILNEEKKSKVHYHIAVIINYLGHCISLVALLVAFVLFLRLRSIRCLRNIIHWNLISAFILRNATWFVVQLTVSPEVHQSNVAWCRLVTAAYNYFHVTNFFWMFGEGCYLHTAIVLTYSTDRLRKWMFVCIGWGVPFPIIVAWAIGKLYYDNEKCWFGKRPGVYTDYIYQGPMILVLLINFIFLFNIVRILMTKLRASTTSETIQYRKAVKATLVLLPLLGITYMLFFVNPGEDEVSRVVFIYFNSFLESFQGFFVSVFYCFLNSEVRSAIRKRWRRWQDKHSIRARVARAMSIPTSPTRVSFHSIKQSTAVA
UniProt O88382: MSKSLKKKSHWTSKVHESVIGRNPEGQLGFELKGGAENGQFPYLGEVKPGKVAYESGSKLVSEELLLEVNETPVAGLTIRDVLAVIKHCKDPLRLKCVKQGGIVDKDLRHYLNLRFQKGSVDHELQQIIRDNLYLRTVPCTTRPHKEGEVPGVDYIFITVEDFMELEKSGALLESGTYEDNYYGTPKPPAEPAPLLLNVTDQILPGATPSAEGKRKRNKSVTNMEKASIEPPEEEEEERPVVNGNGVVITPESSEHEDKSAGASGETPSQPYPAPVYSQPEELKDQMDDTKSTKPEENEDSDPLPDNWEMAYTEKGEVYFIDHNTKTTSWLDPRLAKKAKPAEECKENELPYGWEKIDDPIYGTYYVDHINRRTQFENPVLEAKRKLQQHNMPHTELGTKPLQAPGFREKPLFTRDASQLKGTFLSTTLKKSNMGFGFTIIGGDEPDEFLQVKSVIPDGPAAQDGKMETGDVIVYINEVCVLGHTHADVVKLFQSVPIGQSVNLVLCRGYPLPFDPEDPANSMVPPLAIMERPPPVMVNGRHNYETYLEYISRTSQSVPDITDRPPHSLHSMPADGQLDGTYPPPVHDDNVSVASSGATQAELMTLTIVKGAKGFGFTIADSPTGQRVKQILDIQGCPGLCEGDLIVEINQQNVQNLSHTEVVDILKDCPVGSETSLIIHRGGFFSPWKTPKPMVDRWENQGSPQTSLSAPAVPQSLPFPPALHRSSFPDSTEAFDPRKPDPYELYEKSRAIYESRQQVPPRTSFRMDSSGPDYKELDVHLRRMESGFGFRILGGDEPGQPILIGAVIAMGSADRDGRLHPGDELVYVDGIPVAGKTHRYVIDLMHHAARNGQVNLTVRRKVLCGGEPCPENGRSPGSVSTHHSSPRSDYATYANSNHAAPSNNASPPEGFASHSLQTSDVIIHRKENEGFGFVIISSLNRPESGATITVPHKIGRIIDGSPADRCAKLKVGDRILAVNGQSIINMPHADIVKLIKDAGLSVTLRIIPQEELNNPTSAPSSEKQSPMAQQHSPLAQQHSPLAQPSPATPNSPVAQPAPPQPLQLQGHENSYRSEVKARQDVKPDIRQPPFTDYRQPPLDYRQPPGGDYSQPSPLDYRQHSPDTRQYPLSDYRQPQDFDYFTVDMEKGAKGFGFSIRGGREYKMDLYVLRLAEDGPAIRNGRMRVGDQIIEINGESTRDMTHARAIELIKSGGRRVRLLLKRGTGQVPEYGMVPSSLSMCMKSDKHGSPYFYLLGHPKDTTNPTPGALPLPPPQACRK
flag-CRHR1 (P34998, residues 24-415): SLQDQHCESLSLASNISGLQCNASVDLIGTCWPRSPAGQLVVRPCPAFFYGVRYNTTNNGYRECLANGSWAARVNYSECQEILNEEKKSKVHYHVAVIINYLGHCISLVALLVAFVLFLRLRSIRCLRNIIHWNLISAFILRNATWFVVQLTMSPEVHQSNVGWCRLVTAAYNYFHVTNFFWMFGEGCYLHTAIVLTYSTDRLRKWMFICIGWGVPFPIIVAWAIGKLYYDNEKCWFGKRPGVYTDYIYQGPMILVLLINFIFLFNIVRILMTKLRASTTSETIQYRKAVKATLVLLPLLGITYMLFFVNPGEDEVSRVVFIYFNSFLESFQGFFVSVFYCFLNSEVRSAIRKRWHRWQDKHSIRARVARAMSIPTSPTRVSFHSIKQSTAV
flag-CRHR1-STAVA (P34998-2, form named): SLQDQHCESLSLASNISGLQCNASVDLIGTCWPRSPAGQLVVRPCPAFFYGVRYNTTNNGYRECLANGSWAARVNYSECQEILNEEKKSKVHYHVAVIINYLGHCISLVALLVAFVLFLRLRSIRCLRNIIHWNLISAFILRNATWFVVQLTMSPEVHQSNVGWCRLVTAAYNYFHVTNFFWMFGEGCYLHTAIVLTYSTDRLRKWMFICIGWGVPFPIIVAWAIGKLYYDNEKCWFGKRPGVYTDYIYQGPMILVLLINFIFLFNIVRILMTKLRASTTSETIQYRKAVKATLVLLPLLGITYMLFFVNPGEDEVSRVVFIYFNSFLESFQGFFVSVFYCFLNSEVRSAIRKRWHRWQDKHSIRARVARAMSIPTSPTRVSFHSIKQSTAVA
UniProt O00560: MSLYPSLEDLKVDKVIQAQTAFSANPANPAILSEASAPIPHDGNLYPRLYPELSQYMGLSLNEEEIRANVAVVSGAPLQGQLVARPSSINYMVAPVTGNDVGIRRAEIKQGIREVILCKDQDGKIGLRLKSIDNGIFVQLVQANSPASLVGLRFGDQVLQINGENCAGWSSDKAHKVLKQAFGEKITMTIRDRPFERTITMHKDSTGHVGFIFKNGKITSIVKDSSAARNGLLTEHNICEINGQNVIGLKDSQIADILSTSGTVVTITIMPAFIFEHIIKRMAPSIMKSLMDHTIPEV
UniProt Q62696: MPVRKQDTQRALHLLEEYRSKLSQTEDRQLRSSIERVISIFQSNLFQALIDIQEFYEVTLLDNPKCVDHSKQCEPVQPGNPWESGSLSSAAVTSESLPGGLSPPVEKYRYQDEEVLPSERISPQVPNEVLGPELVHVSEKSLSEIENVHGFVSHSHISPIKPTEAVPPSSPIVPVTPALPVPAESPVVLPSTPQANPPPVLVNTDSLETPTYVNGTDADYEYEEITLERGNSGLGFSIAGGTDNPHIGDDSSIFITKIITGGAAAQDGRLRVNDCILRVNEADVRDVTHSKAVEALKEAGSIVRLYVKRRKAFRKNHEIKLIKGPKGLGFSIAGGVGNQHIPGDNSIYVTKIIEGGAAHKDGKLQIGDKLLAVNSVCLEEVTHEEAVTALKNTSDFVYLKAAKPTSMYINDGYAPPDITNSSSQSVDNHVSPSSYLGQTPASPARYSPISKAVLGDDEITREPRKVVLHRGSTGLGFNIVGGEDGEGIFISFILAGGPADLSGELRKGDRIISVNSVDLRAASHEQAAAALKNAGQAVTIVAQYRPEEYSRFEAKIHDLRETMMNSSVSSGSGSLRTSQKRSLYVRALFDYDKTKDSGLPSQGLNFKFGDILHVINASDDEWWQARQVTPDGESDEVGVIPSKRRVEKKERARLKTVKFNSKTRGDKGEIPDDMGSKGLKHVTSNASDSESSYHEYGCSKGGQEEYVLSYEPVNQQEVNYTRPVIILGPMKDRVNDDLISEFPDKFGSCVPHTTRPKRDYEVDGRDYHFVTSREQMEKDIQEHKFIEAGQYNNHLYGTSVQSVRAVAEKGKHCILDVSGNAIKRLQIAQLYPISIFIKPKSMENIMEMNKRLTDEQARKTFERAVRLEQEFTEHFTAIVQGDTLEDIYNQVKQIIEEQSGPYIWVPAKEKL

Results are given in words; binding and its absence hold for the method and conditions named. In cells and extracts the contact can be indirect. Some results given as binding are weak or reduced against the parent protein; the word gives no strength. For part of these data: Where a sequence is shown, tags or fusion partners need not be part of it.

Targets include myc-GFP-CRHR1 (mouse) (UniProt P35347); myc-MAGI2 (rat) (UniProt O88382); flag-CRHR1 (human) (UniProt P34998); flag-CRHR1-STAVA (human) (UniProt P34998); syntenin-1-myc (UniProt O00560); HA-SAP97 (rat) (UniProt Q62696).
What all share (experiment): co-IP; lysates of HEK293 cells transiently co-transfected; IP overnight at 4°C with anti-GFP, anti-myc, anti-HA or anti-flag and Protein G Dynabeads; washes with 500 mM NaCl, 0.1% SDS, 0.5% Triton X-100; immunoblot; for syntenin-1 under basal conditions and after CRH (100 nM) treatment
(In western blotting, separated proteins are transferred to a membrane and probed.)

Assay [1] has as its target myc-GFP-CRHR1-STAVA (mouse) (UniProt P35347).
The target of the next assay is T1, flag-SAP102 (mouse) (UniProt P70175).
T1 sequence: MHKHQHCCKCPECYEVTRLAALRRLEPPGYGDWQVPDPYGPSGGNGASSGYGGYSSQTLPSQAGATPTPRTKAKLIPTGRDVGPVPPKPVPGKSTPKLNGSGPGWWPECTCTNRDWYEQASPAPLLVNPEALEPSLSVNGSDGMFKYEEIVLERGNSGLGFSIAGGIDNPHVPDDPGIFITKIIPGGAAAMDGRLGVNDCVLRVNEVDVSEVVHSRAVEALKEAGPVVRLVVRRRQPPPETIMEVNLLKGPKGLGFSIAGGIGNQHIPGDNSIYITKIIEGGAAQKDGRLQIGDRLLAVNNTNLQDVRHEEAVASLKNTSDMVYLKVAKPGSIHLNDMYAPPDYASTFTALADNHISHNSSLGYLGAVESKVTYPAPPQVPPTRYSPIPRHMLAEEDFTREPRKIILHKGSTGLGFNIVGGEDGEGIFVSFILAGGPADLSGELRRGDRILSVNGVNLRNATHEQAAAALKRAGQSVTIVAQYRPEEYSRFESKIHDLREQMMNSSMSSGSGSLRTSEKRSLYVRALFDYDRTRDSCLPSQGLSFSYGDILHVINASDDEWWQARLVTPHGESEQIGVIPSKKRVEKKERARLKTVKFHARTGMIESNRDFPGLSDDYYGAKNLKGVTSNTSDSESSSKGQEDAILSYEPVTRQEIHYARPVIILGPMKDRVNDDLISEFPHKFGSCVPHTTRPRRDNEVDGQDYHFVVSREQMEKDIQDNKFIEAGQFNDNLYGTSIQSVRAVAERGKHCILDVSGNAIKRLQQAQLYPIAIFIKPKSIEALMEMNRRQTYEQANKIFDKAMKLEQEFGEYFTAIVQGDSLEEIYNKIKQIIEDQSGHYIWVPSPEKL

Regarding HA-SAP97 (from UniProt Q62696 1-911), the binding entry with myc-GFP-CRHR1 (mouse) was “binds”; in assay [1] it was “no binding”.

For “flag-CRHR1-STAVA (from UniProt P34998-2 24-415) (receptor)”, the binding entry in the assay with myc-MAGI2 (rat) is on record as “no binding”.

Consider myc-MAGI2 (from UniProt O88382 1-1277), for which the binding entry is “binds” in the assay with flag-CRHR1 (human) and “no binding” with flag-CRHR1-STAVA (human).

With “flag-CRHR1 (from UniProt P34998-2 24-415) (receptor)”, the binding entry with myc-MAGI2 (rat) is given as “binds”; in the assay with syntenin-1-myc, “no binding”.

In the case of “myc-GFP-CRHR1 (from UniProt P35347 24-415) (receptor)”, the binding entry in the assay with flag-SAP102 (mouse) and in the assay with HA-SAP97 (rat) was “binds” throughout.

“syntenin-1-myc (from UniProt O00560 1-298)”: in the assay with flag-CRHR1 (human), the binding result is recorded as “no binding”.

On to “myc-GFP-CRHR1-STAVA (from UniProt P35347 24-415) (receptor)”, for which the binding entry with flag-SAP102 (mouse) and with HA-SAP97 (rat) was “no binding” in each case.
